Laboratory results reported in PubChem BioAssay AID624417 (National Center for Advancing Translational Sciences (NCATS), 2012).
Hit rate of the full screen: of about 410,000 compounds, about 6,400 (1.6%) were called active. This list was built around the results that the source calls inconclusive (neither active nor inactive); the mix of calls is not that of the screen. The call rests on the fitted dose curve; in most records, active means well fitted inhibition curve with a large enough effect; inconclusive means small, poorly fitted or top-dose-only effect; inactive means no such curve, though single readings can be large or run the other way. Potencies of inconclusive entries are left out as doubtful fits.

Biological target: Glucagon-like peptide 1 receptor (Homo sapiens) (UniProt P43220)
Experiment: qHTS of GLP-1 Receptor Inverse Agonists (Inhibition Mode); further: nearly all actives have a fitted effect of over 55% in size
Conditions: HEK293 GLP-1R CRE-luciferase, luminescence, 24 h, GLP-1R form is constitutively active; activity change, negative = inhibition: at 38.3 µM (top of the series) unless noted
Summary of the method: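 Assay principle: reduced luminescence from a cAMP-responsive reporter in HEK293 cells co-expressing a constitutively active GLP-1R. Conditions: 24 hr compound incubation, 37 deg C, 5% CO2.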
On the % scale 0 is the no-effect control and ±100 the full control effect; potency means the concentration at half of the fitted maximal effect; tags describe the fitted curve by direction and shape.

UniProt P43220, sequence (P43220 whole entry, looked up): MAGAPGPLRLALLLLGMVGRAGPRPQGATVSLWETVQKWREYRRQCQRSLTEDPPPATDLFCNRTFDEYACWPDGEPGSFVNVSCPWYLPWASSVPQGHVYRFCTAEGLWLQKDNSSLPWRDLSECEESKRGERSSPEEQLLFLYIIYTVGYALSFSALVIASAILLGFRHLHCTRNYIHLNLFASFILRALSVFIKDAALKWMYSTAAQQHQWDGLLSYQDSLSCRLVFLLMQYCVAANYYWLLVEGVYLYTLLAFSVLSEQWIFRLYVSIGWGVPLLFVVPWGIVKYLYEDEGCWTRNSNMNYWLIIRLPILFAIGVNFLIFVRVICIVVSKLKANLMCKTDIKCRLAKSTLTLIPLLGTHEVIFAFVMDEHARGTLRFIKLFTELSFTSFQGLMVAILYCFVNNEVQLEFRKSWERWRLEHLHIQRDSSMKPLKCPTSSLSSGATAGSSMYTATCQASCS

Row | Structure (SMILES) | Potency | activity change, negative = inhibition
1 | COC(=O)[C@]12CCCCC=C1N(Cc1ccc3c(c1)OCO3)C(=O)[C@H](CC(=O)NCC13CC4CC(CC(C4)C1)C3)C2 | inconclusive [inhibitor, partial curve, poor fit] | –
2 | Cc1cc(C)c(NS(=O)(=O)c2ccccc2)c(C)c1 | inconclusive [inhibitor, single point] | –
3 | CCN1CCN(c2nc(C)c3c(n2)CC(C)CC3=O)CC1 (centres undefined) | inconclusive [inhibitor, partial curve, poor fit] | –
4 | OCC[C@@H]1C[C@H](O)[C@@H](O)[C@]2(OCc3cc(Cl)ccc32)O1 | – | inactive: 4.63%
5 | Cc1cccc(Cn2c(C)c(C)c3cc(C(=O)NCc4ccc(C)o4)ccc32)c1 | inconclusive [inhibitor, partial curve, poor fit] | –
6 | CCOc1ccc(NC(=O)CN2C(=O)C(c3ccccc3)=NC23CCCCCC3)cc1 | inconclusive [inhibitor, single point] | –
7 | CCCCCOc1ccc(C(=O)N(Cc2ccccc2)C2CCS(=O)(=O)C2)cc1 (centres undefined) | inconclusive [inhibitor, single point] | –
8 | Cc1ccc(-n2c(SCC(=O)NCCN3C(=O)CSC3=O)nnc2-c2cccc(C)c2)cc1 | inconclusive [inhibitor, partial curve, poor fit] | –
9 | CCCn1nc(C(=O)Nc2nc(-c3ccccn3)cs2)c2ccccc2c1=O | inconclusive [inhibitor, partial curve, poor fit] | –
10 | Cc1cc(NC2CCCCC2)nc(NCc2ccccc2)n1 | active: 10 µM | –
11 | Cc1ccc2nc(/C(C#N)=C/c3ccc(-c4cccc(Cl)c4)o3)[nH]c2c1 | inconclusive [inhibitor, partial curve, poor fit] | –
12 | CCC(C)c1ccc(NC(=O)c2[nH]c(C)c(C(C)=O)c2C)cc1 (centres undefined) | inconclusive [inhibitor, partial curve, poor fit] | –
13 | N#Cc1cccc(NC(=O)NCCc2c[nH]c3ccccc23)c1 | inconclusive [inhibitor, single point] | –
14 | Cc1ccc(C(=O)/C=C/Nc2ccccn2)cc1 | active: 5.62 µM | –
15 | CC(CCc1ccccc1)NC(=O)COC(=O)c1cccc2ccccc12 (centres undefined) | inconclusive [inhibitor, partial curve, poor fit] | –
16 | CCOc1ccc(NS(=O)(=O)c2ccc(C(=O)N(C)Cc3cccc(OC)c3OC)cc2)cc1 | inconclusive [inhibitor, single point] | –
17 | Cc1nc(NNC(=O)c2ccc(Cl)cc2Cl)cc(-c2ccccc2)n1 | inconclusive [inhibitor, partial curve] | –
18 | Cc1csc(NC(=O)C(Cc2ccccc2)n2cccc2)n1 (centres undefined) | inconclusive [inhibitor, partial curve, poor fit] | –
19 | CCOC(=O)Cc1csc(NC(=O)CSc2nnnn2-c2ccc(CC)cc2)n1 | inconclusive [inhibitor, partial curve, poor fit] | –
20 | COc1cc(OC)nc(Oc2ccccc2C(=O)Oc2cccc(C)c2)n1 | inconclusive [inhibitor, single point] | –

Row | Structure (SMILES) | Potency | activity change, negative = inhibition
21 | CCOC(=O)c1cn[nH]c1NC(=S)Nc1ccc(Cl)cc1 | inconclusive [inhibitor, single point] | –
22 | Cc1cc(Cn2nc(-c3ccccc3)cc2C(=O)NCc2cccc(Br)c2)on1 | inconclusive [inhibitor, partial curve, poor fit] | –
23 | Cc1ccccc1N1CCN(Cc2ccc(Br)o2)CC1 | inconclusive [inhibitor, partial curve, poor fit] | –
24 | Cc1ccc(O)c(C(=O)CC(=O)c2ccccc2Cl)c1 | inconclusive [inhibitor, single point] | –
25 | O=C(C1CCC(Cn2c(=O)[nH]c3ccccc3c2=O)CC1)N1CCN(c2ccccc2)CC1 (centres undefined) | – | inactive: -28.9%
26 | c1ccc(NC2=Nc3ccccc3CS2)cc1 | – | inactive: 14.2%
27 | COc1ccc(-c2nnc(SCC(=O)NC(C)c3ccccc3)o2)cc1 (centres undefined) | – | inactive: -33.2%
28 | CC(C)CN(CC(C)C)C(=O)Cc1coc2ccc3ccccc3c12 | inconclusive [inhibitor, partial curve, poor fit] | –
29 | CN(c1ccccc1)S(=O)(=O)c1ccc(C(=O)NCC(c2ccco2)N2CCCCC2)cc1 (centres undefined) | inconclusive [inhibitor, partial curve, poor fit] | –
30 | Cc1ccc(-n2cc(CN3CCN(Cc4nccn4C)CC3)c(-c3ccc(F)cc3)n2)cc1 | inconclusive [inhibitor, partial curve, poor fit] | –
31 | COc1ccc(C(=O)Nc2oc(-c3ccccc3)c(-c3ccccc3)c2C#N)cc1OC | inconclusive [inhibitor, full curve] | –
32 | COC(=O)Cc1ccc(OC2(C)CCN(Cc3ccccc3)C2)cc1 (centres undefined) | – | inactive: 0.953%
33 | CCC(C)Sc1nc2ccccc2c(=O)[nH]1 (centres undefined) | inconclusive [inhibitor, partial curve, poor fit] | –
34 | CCCNC(=O)c1onc(CSc2ccc(Cl)cc2)c1C(=O)NCCOC | inconclusive [inhibitor, single point] | –
35 | O=C(NCCCN1CCN(c2ccccc2)CC1)c1cc2c(s1)-c1ccccc1OC2 | inconclusive [inhibitor, single point] | –
36 | CC(=O)N1c2ccc(S(=O)(=O)N3CCC(C(=O)N4CCN(c5ccc(Cl)cc5)CC4)CC3)cc2CC1C (centres undefined) | inconclusive [inhibitor, single point] | –
37 | O=C1N=C(N2CCOCC2)S/C1=C\c1ccc(OS(=O)(=O)c2ccccc2)cc1 | inconclusive [inhibitor, single point] | –
38 | O=C(Nc1cccc(C(F)(F)F)c1)C1CCN(S(=O)(=O)c2cnc[nH]2)CC1 | inconclusive [inhibitor, single point] | –
39 | CCC1CN(C(=O)Nc2cccc3c2CCCC3)c2cc(C)ccc2O1 (centres undefined) | inconclusive [inhibitor, single point] | –
